Assay results reported in a collection of fitness landscapes (doi:10.1016/j.celrep.2020.107928).
The full ranking holds about 81,000 sequences; the median of “one-hybrid fitness for binding NBS DNA” is about -0.1, and the highest 2% start at about 0.36. Some of the results follow.

B1: Caulobacter ParB omega fusion; a variant is named by its letters at X, in order, B8GW30 (parent)
chain: MESVVVGEPGMSEGRRGLGRGLSALLGEVDAAPAQAPGEQLGGSREAPIEILQRNPDQPRRTFREEDLEDLSNSIREKGVLQPILVRPSPDTAGEYQIVAGERAWRAAQRAGLKTVPIMVRELDDLAVLEIGIIENVQRADLNVLEEALSYKVLMEKFERTQENIAQTIGKSXSHVANXMRLLXLPDEVQSYLVSGELTAXHARAIAAAADPVALAKQIIEGGLSVRETEALARKAPNLSAGKSKGGRPPRVKDTDTQALESDLSSVLGLDVSIDHRGSTGTLTITYATLEQLDDLCNRLTRGI

Variants of: B1
Experiment: one-hybrid fitness for binding NBS DNA (the Noc-binding site; scaled: cognate 1, non-cognate 0); higher = stronger binding
Settings: with NBS DNA site
Procedure, shortened: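 Selection: bacterial one-hybrid in E. coli USO, HIS3 reporter with the site 19 bp from the promoter, 48 hours at 37°C on M9-minus-histidine plus 0.1 mM IPTG and 5 mM 3-AT. Libraries were Caulobacter ParB with four randomised specificity codons, sequenced on Illumina before and after selection. Fitness is the rescaled log change in variant-to-wild-type read ratio, anchored to the cognate and non-cognate sites.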

RSMA and LGTV cannot be ordered by “one-hybrid fitness for binding NBS DNA” value: ≤ 0.2 for the first, ≤ 0.2 for the second.

Compared with RRMM, MVTV is lower in “one-hybrid fitness for binding NBS DNA” value: 0.221 for the first, ≤ 0.2 for the second.

IVDC and MPYE cannot be ordered by “one-hybrid fitness for binding NBS DNA” value: ≤ 0.2 for the first, ≤ 0.2 for the second.

WIAG and PDIG cannot be ordered by “one-hybrid fitness for binding NBS DNA” value: ≤ 0.2 for the first, ≤ 0.2 for the second.

MPQW and LSCS cannot be ordered by “one-hybrid fitness for binding NBS DNA” value: ≤ 0.2 for the first, ≤ 0.2 for the second.

MRQC and LTTV cannot be ordered by “one-hybrid fitness for binding NBS DNA” value: ≤ 0.2 for the first, ≤ 0.2 for the second.

ATSC and KINY cannot be ordered by “one-hybrid fitness for binding NBS DNA” value: ≤ 0.2 for the first, ≤ 0.2 for the second.

GSCT and IQCG cannot be ordered by “one-hybrid fitness for binding NBS DNA” value: ≤ 0.2 for the first, ≤ 0.2 for the second.

PIKR and RSHL cannot be ordered by “one-hybrid fitness for binding NBS DNA” value: ≤ 0.2 for the first, ≤ 0.2 for the second.

GYWF and TLSM cannot be ordered by “one-hybrid fitness for binding NBS DNA” value: ≤ 0.2 for the first, ≤ 0.2 for the second.

QGQV and ANWD cannot be ordered by “one-hybrid fitness for binding NBS DNA” value: ≤ 0.2 for the first, ≤ 0.2 for the second.

QKLI and GTPA cannot be ordered by “one-hybrid fitness for binding NBS DNA” value: ≤ 0.2 for the first, ≤ 0.2 for the second.

EPKK and HTVL cannot be ordered by “one-hybrid fitness for binding NBS DNA” value: ≤ 0.2 for the first, ≤ 0.2 for the second.

WNSR and VPFC cannot be ordered by “one-hybrid fitness for binding NBS DNA” value: ≤ 0.2 for the first, ≤ 0.2 for the second.

QLPM and HPCH cannot be ordered by “one-hybrid fitness for binding NBS DNA” value: ≤ 0.2 for the first, ≤ 0.2 for the second.

WQMR and ESYT cannot be ordered by “one-hybrid fitness for binding NBS DNA” value: ≤ 0.2 for the first, ≤ 0.2 for the second.

KCPI and ARGF cannot be ordered by “one-hybrid fitness for binding NBS DNA” value: ≤ 0.2 for the first, ≤ 0.2 for the second.

LDKT and LHIT cannot be ordered by “one-hybrid fitness for binding NBS DNA” value: ≤ 0.2 for the first, ≤ 0.2 for the second.

MVTL and SPIT cannot be ordered by “one-hybrid fitness for binding NBS DNA” value: ≤ 0.2 for the first, ≤ 0.2 for the second.

AHGY and NNSE cannot be ordered by “one-hybrid fitness for binding NBS DNA” value: ≤ 0.2 for the first, ≤ 0.2 for the second.

VTMF and LHME cannot be ordered by “one-hybrid fitness for binding NBS DNA” value: ≤ 0.2 for the first, ≤ 0.2 for the second.

FDSR and LVRG cannot be ordered by “one-hybrid fitness for binding NBS DNA” value: ≤ 0.2 for the first, ≤ 0.2 for the second.

YTRV and MGCS cannot be ordered by “one-hybrid fitness for binding NBS DNA” value: ≤ 0.2 for the first, ≤ 0.2 for the second.

YARI and IDNL cannot be ordered by “one-hybrid fitness for binding NBS DNA” value: ≤ 0.2 for the first, ≤ 0.2 for the second.

STAF and DNIT cannot be ordered by “one-hybrid fitness for binding NBS DNA” value: ≤ 0.2 for the first, ≤ 0.2 for the second.

Compared with QRYG, HFVY is lower in “one-hybrid fitness for binding NBS DNA” value: 0.312 for the first, ≤ 0.2 for the second.

QPRM and RGYT cannot be ordered by “one-hybrid fitness for binding NBS DNA” value: ≤ 0.2 for the first, ≤ 0.2 for the second.

GYGF and GGSS cannot be ordered by “one-hybrid fitness for binding NBS DNA” value: ≤ 0.2 for the first, ≤ 0.2 for the second.

RPPK and SYTG cannot be ordered by “one-hybrid fitness for binding NBS DNA” value: ≤ 0.2 for the first, ≤ 0.2 for the second.

HSWL and KTAQ cannot be ordered by “one-hybrid fitness for binding NBS DNA” value: ≤ 0.2 for the first, ≤ 0.2 for the second.

YLRW and CLWS cannot be ordered by “one-hybrid fitness for binding NBS DNA” value: ≤ 0.2 for the first, ≤ 0.2 for the second.

Going from LSGT to QSRL, the “one-hybrid fitness for binding NBS DNA” value rises from ≤ 0.2 to 0.228.

QVNQ and SLCL cannot be ordered by “one-hybrid fitness for binding NBS DNA” value: ≤ 0.2 for the first, ≤ 0.2 for the second.

EQNT and VLVS cannot be ordered by “one-hybrid fitness for binding NBS DNA” value: ≤ 0.2 for the first, ≤ 0.2 for the second.

PAAM and MYST cannot be ordered by “one-hybrid fitness for binding NBS DNA” value: ≤ 0.2 for the first, ≤ 0.2 for the second.

KLRS and QWLP cannot be ordered by “one-hybrid fitness for binding NBS DNA” value: ≤ 0.2 for the first, ≤ 0.2 for the second.

TNMD and RREE cannot be ordered by “one-hybrid fitness for binding NBS DNA” value: ≤ 0.2 for the first, ≤ 0.2 for the second.

REPQ and HVND cannot be ordered by “one-hybrid fitness for binding NBS DNA” value: ≤ 0.2 for the first, ≤ 0.2 for the second.

CCFR and EDNV cannot be ordered by “one-hybrid fitness for binding NBS DNA” value: ≤ 0.2 for the first, ≤ 0.2 for the second.

IKDS and NLYC cannot be ordered by “one-hybrid fitness for binding NBS DNA” value: ≤ 0.2 for the first, ≤ 0.2 for the second.

IVCC and RNID cannot be ordered by “one-hybrid fitness for binding NBS DNA” value: ≤ 0.2 for the first, ≤ 0.2 for the second.

QSQF and DITT cannot be ordered by “one-hybrid fitness for binding NBS DNA” value: ≤ 0.2 for the first, ≤ 0.2 for the second.

SYRS and ANIP cannot be ordered by “one-hybrid fitness for binding NBS DNA” value: ≤ 0.2 for the first, ≤ 0.2 for the second.

NGIG and AHPP cannot be ordered by “one-hybrid fitness for binding NBS DNA” value: ≤ 0.2 for the first, ≤ 0.2 for the second.

TRQN and YQPS cannot be ordered by “one-hybrid fitness for binding NBS DNA” value: ≤ 0.2 for the first, ≤ 0.2 for the second.

GHKT and RAIQ cannot be ordered by “one-hybrid fitness for binding NBS DNA” value: ≤ 0.2 for the first, ≤ 0.2 for the second.

DAQE and ITMS cannot be ordered by “one-hybrid fitness for binding NBS DNA” value: ≤ 0.2 for the first, ≤ 0.2 for the second.

EFPR and HEHQ cannot be ordered by “one-hybrid fitness for binding NBS DNA” value: ≤ 0.2 for the first, ≤ 0.2 for the second.

SYPN and PESI cannot be ordered by “one-hybrid fitness for binding NBS DNA” value: ≤ 0.2 for the first, ≤ 0.2 for the second.

VCTN and TMNC cannot be ordered by “one-hybrid fitness for binding NBS DNA” value: ≤ 0.2 for the first, ≤ 0.2 for the second.

GGVG and WTRL cannot be ordered by “one-hybrid fitness for binding NBS DNA” value: ≤ 0.2 for the first, ≤ 0.2 for the second.

CKHC and HQNP cannot be ordered by “one-hybrid fitness for binding NBS DNA” value: ≤ 0.2 for the first, ≤ 0.2 for the second.

LVKE and IRHA cannot be ordered by “one-hybrid fitness for binding NBS DNA” value: ≤ 0.2 for the first, ≤ 0.2 for the second.

EMRF and SWHR cannot be ordered by “one-hybrid fitness for binding NBS DNA” value: ≤ 0.2 for the first, ≤ 0.2 for the second.

SNRR and IRAH cannot be ordered by “one-hybrid fitness for binding NBS DNA” value: ≤ 0.2 for the first, ≤ 0.2 for the second.

PPRV and TPFT cannot be ordered by “one-hybrid fitness for binding NBS DNA” value: ≤ 0.2 for the first, ≤ 0.2 for the second.

NQPM and WNER cannot be ordered by “one-hybrid fitness for binding NBS DNA” value: ≤ 0.2 for the first, ≤ 0.2 for the second.

HGDA and VQYC cannot be ordered by “one-hybrid fitness for binding NBS DNA” value: ≤ 0.2 for the first, ≤ 0.2 for the second.

RCIG and CPRQ cannot be ordered by “one-hybrid fitness for binding NBS DNA” value: ≤ 0.2 for the first, ≤ 0.2 for the second.

NEHG and KEVS cannot be ordered by “one-hybrid fitness for binding NBS DNA” value: ≤ 0.2 for the first, ≤ 0.2 for the second.

CQTW and RSDK cannot be ordered by “one-hybrid fitness for binding NBS DNA” value: ≤ 0.2 for the first, ≤ 0.2 for the second.

EPAT and YPAF cannot be ordered by “one-hybrid fitness for binding NBS DNA” value: ≤ 0.2 for the first, ≤ 0.2 for the second.

Going from QTHM to QDNG, the “one-hybrid fitness for binding NBS DNA” value falls from 0.296 to ≤ 0.2.

PQDG and QWPW cannot be ordered by “one-hybrid fitness for binding NBS DNA” value: ≤ 0.2 for the first, ≤ 0.2 for the second.

QSIM and QVGM cannot be ordered by “one-hybrid fitness for binding NBS DNA” value: ≤ 0.2 for the first, ≤ 0.2 for the second.

MYYL and NNSG cannot be ordered by “one-hybrid fitness for binding NBS DNA” value: ≤ 0.2 for the first, ≤ 0.2 for the second.

DRQQ and ATHE cannot be ordered by “one-hybrid fitness for binding NBS DNA” value: ≤ 0.2 for the first, ≤ 0.2 for the second.

MNAI and SRFP cannot be ordered by “one-hybrid fitness for binding NBS DNA” value: ≤ 0.2 for the first, ≤ 0.2 for the second.

YNSS and YRLQ cannot be ordered by “one-hybrid fitness for binding NBS DNA” value: ≤ 0.2 for the first, ≤ 0.2 for the second.

TMHG and MFYS cannot be ordered by “one-hybrid fitness for binding NBS DNA” value: ≤ 0.2 for the first, ≤ 0.2 for the second.

NDAG and ARLH cannot be ordered by “one-hybrid fitness for binding NBS DNA” value: ≤ 0.2 for the first, ≤ 0.2 for the second.

PHLR and CMLA cannot be ordered by “one-hybrid fitness for binding NBS DNA” value: ≤ 0.2 for the first, ≤ 0.2 for the second.

SGQP and DGPD cannot be ordered by “one-hybrid fitness for binding NBS DNA” value: ≤ 0.2 for the first, ≤ 0.2 for the second.

YLYF and FLCC cannot be ordered by “one-hybrid fitness for binding NBS DNA” value: ≤ 0.2 for the first, ≤ 0.2 for the second.

First: RRLQ
Second: MKDG
The “one-hybrid fitness for binding NBS DNA” value of the first is higher: 0.209 for the first, ≤ 0.2 for the second.

VAGT and RNQL cannot be ordered by “one-hybrid fitness for binding NBS DNA” value: ≤ 0.2 for the first, ≤ 0.2 for the second.

PLYS and YRGG cannot be ordered by “one-hybrid fitness for binding NBS DNA” value: ≤ 0.2 for the first, ≤ 0.2 for the second.

HKMV and YLAV cannot be ordered by “one-hybrid fitness for binding NBS DNA” value: ≤ 0.2 for the first, ≤ 0.2 for the second.

First: RILR
Second: TPRW
The “one-hybrid fitness for binding NBS DNA” value of the first is higher: 0.27 for the first, ≤ 0.2 for the second.

VKGA and VRQQ cannot be ordered by “one-hybrid fitness for binding NBS DNA” value: ≤ 0.2 for the first, ≤ 0.2 for the second.

PYNS and QNAV cannot be ordered by “one-hybrid fitness for binding NBS DNA” value: ≤ 0.2 for the first, ≤ 0.2 for the second.

TKTI and MAGG cannot be ordered by “one-hybrid fitness for binding NBS DNA” value: ≤ 0.2 for the first, ≤ 0.2 for the second.

MLCT and ACQK cannot be ordered by “one-hybrid fitness for binding NBS DNA” value: ≤ 0.2 for the first, ≤ 0.2 for the second.

RDMA and NIVG cannot be ordered by “one-hybrid fitness for binding NBS DNA” value: ≤ 0.2 for the first, ≤ 0.2 for the second.

Going from QMHD to QAPF, the “one-hybrid fitness for binding NBS DNA” value rises from ≤ 0.2 to 0.232.

PGTR and SPTR cannot be ordered by “one-hybrid fitness for binding NBS DNA” value: ≤ 0.2 for the first, ≤ 0.2 for the second.

KTYV and TMAA cannot be ordered by “one-hybrid fitness for binding NBS DNA” value: ≤ 0.2 for the first, ≤ 0.2 for the second.

TMRF and SSWH cannot be ordered by “one-hybrid fitness for binding NBS DNA” value: ≤ 0.2 for the first, ≤ 0.2 for the second.

RLLI and ADLT cannot be ordered by “one-hybrid fitness for binding NBS DNA” value: ≤ 0.2 for the first, ≤ 0.2 for the second.

GRYT and QDAK cannot be ordered by “one-hybrid fitness for binding NBS DNA” value: ≤ 0.2 for the first, ≤ 0.2 for the second.

PSGI and CIQL cannot be ordered by “one-hybrid fitness for binding NBS DNA” value: ≤ 0.2 for the first, ≤ 0.2 for the second.

ESSM and DSNR cannot be ordered by “one-hybrid fitness for binding NBS DNA” value: ≤ 0.2 for the first, ≤ 0.2 for the second.

SLFD and PEDN cannot be ordered by “one-hybrid fitness for binding NBS DNA” value: ≤ 0.2 for the first, ≤ 0.2 for the second.

PWSV and QVAA cannot be ordered by “one-hybrid fitness for binding NBS DNA” value: ≤ 0.2 for the first, ≤ 0.2 for the second.

TLPE and NITL cannot be ordered by “one-hybrid fitness for binding NBS DNA” value: ≤ 0.2 for the first, ≤ 0.2 for the second.

CQKC and ENFR cannot be ordered by “one-hybrid fitness for binding NBS DNA” value: ≤ 0.2 for the first, ≤ 0.2 for the second.

LLFS and SPAG cannot be ordered by “one-hybrid fitness for binding NBS DNA” value: ≤ 0.2 for the first, ≤ 0.2 for the second.

MQVS was tested, and the “one-hybrid fitness for binding NBS DNA” value was ≤ 0.2.
